Measurements taken from PubChem BioAssay AID1460 (National Center for Advancing Translational Sciences (NCATS), 2008).
In all, about 270,000 compounds went through this assay and about 5,800 (2.1%) were called active. This list was built around the results that the source calls inconclusive (neither active nor inactive); the mix of calls is not that of the screen. The call rests on the fitted dose curve; in most records, active means well fitted inhibition curve with a large enough effect; inconclusive means small, poorly fitted or top-dose-only effect; inactive means flat fitted curve, though single readings scatter. Where the call is inconclusive, the potency comes from a doubtful curve fit.

Molecular target: Microtubule-associated protein tau (Homo sapiens) (UniProt P10636)
Experiment: qHTS for Inhibitors of Tau Fibril Formation, Thioflavin T Binding; further: nearly all actives have a fitted effect of over 55% in size
Settings: recombinant tau K18 P301L (four-repeat tau fragment), heparin-induced fibrillization, ThT fluorescence; series mostly up to 57.4 µM
Procedure, shortened: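 K18 P301L tau (15 uM + 0.24 uM Alexa 594-tagged), heparin 20 uM, NaOAc pH 7, 6 h 37 C; ThT 30 uM, 1 h RT, ex 450/em 510 nm.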
Potency means the concentration at half of the fitted maximal effect; tags describe the fitted curve by direction and shape.

Sequence of UniProt P10636 (P10636 whole entry, looked up): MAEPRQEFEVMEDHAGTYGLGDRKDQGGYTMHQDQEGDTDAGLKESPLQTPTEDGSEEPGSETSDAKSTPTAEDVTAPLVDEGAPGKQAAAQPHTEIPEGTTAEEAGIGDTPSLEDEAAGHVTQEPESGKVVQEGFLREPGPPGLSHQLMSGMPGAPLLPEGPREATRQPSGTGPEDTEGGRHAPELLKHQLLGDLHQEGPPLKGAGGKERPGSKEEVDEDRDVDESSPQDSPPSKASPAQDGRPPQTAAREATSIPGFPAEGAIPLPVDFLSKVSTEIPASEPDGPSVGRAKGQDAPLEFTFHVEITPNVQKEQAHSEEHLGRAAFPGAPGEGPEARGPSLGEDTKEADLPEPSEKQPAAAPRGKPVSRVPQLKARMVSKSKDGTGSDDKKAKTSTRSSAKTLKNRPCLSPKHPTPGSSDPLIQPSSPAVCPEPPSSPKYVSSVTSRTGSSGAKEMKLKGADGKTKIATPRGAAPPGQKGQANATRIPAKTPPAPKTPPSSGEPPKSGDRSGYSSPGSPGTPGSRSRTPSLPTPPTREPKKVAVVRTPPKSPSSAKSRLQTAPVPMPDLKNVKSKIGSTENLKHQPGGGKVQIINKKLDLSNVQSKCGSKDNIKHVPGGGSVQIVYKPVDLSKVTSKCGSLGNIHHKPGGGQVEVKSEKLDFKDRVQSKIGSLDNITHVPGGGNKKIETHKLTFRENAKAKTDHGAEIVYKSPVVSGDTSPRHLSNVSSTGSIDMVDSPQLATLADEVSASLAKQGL

| SMILES | Potency |
| --- | --- |
| COC(=O)CSc1[nH]c2cc(C)ccc2c1[N+](=O)[O-] | inconclusive: 3.16 µM [inhibitor, full curve] |
| CCOc1ccc2nc(COC(=O)c3cccs3)c(C(=O)c3ccccc3)[n+]([O-])c2c1 | inconclusive: 12.6 µM [inhibitor, partial curve] |
| CCOC(=O)CSc1nc2ccccc2c(=O)[nH]1 | inactive |
| Cc1cccnc1NC(=S)NC(=O)c1cncc(Br)c1 | inactive |
| CNC(=O)Cn1c(=O)c2cccn2c2ccc(F)cc21 | inactive |
| COc1ccc(CNC(=O)CCn2nc(C)c3c(C)n(-c4ccccc4)nc3c2=O)c(OC)c1 | inactive |
| COc1ccc(-c2coc3c(OC)c(OC)cc(O)c3c2=O)cc1 | inconclusive: 4.47 µM [inhibitor, full curve] |
| COc1cc(C2c3c(-c4ccc(C)cc4)n[nH]c3C(=O)N2c2ccc(F)cc2)ccc1O (configuration not stated) | inconclusive: 10 µM [inhibitor, partial curve] |
| O=C(/C=C/c1ccc(Cl)cc1Cl)N1CCc2ccccc21 | inconclusive: 3.16 µM [inhibitor, full curve] |
| O=C(C[n+]1cn(C(F)F)c2ccccc21)c1ccc(Br)cc1 | inactive |
| CC(C)(C)C(=O)Nc1ccc(-c2csnn2)cc1 | inactive |
| O=C(N/N=C/c1ccccc1[N+](=O)[O-])c1ccc2nc[nH]c2c1 | inconclusive: 39.8 µM [inhibitor, single point] |
| COc1cc(/C=N/S(=O)(=O)CCc2ccccc2)ccc1O | inactive |
| Cc1ccc(C(=O)/C=C/c2ccc(-c3ccc(C)cc3)o2)cc1 | inconclusive: 3.98 µM [inhibitor, partial curve] |
| Clc1ccc(OCc2nc3ccccc3n2Cc2ccccc2)c(Cl)c1 | inactive |
| Cc1cc(C)nc(SCc2csc(N)n2)n1 | inactive |
| CC(=O)Nc1cccc(/C(C)=N/NC(=O)c2ccc(Cl)cc2Cl)c1 | inconclusive: 39.8 µM [inhibitor, single point] |
| Cc1ccc(C)c(NC(=S)c2ccccn2)c1 | inconclusive: 20 µM [inhibitor, partial curve] |
| O=[N+]([O-])c1ccc(COc2ccc(-c3[nH]ncc3-c3ccc(Cl)cc3)c(O)c2)cc1 | inactive |
| Cc1cc(=O)n(Cc2cccc(F)c2)c2c1c(C)nn2-c1cccc(F)c1 | inactive |
| CCOC(=O)n1c(=O)n(Cc2ccc(Cl)c(Cl)c2)c2ccccc21 | inconclusive: 39.8 µM [inhibitor, partial curve, poor fit] |
| Cc1ccc2c(c1)-c1[nH]c(=S)ncc1CS2 | inconclusive: 15.8 µM [inhibitor, partial curve] |
| Cc1cc(CSc2ccccc2)ccc1NC(=O)c1cccc([N+](=O)[O-])c1 | inconclusive: 2.24 µM [inhibitor, full curve, poor fit] |
| COc1cc(NC(=O)N2CCC3(CC2)Nc2cc(F)ccc2-n2cccc23)cc(OC)c1OC | inactive |

| SMILES | Potency |
| --- | --- |
| Cc1cc(C)c(NC(=O)Cn2c(=O)nc(-c3ccccc3)c3cc(Cl)ccc32)c(C)c1 | inconclusive: 31.6 µM [inhibitor, single point] |
| COc1ccccc1/C=N/NC(=O)c1nnn(-c2nonc2N)c1CSC1=NCCS1 | inconclusive: 7.08 µM [inhibitor, partial curve, poor fit] |
| O=C(O)C/C=C(\NC(=O)OCc1ccccc1)C(=O)OCc1ccccc1 | inactive |
| O=C(N/N=C/c1sc2ccccc2c1O)c1cccc2ccccc12 | active: 10 µM |
| Cn1c(COc2cccc3ccccc23)nnc1SCC(=O)OC1CCCCC1 | inconclusive: 25.1 µM [inhibitor, single point] |
| CC(C)c1ccc2c(c1)C(c1cccs1)=NNC(c1ccncc1)=N2 | inconclusive: 31.6 µM [inhibitor, single point] |
| CC(C)=NNc1cc([N+](=O)[O-])cc2c1C(=O)N(C)S2=O (configuration not stated) | inconclusive: 31.6 µM [inhibitor, partial curve] |
| O=C(CCCn1c(=S)[nH]c2cc3c(cc2c1=O)OCO3)N1CCN(c2ccccc2)CC1 | inconclusive: 0.501 µM [inhibitor, full curve] |
| CCc1ccc2c(COC(=O)c3n[nH]c4ccccc34)cc(=O)oc2c1 | inconclusive: 7.94 µM [inhibitor, partial curve] |
| [O-]c1c[n+](-c2ccc(-[n+]3cc([O-])on3)cc2)no1 | inconclusive: 17.8 µM [inhibitor, partial curve] |
| Cc1cc(Cl)ccc1OCC(=O)n1cc(C(=O)c2cc(Cl)ccc2O)cn1 | inactive |
| CCOc1ccc(/C=N/NC(=O)c2[nH]ncc2Br)c(O)c1 | inconclusive: 22.4 µM [activator, partial curve] |
| c1ccc(-n2ncc3c(N4CCCCC4)ncnc32)cc1 | inconclusive: 14.1 µM [inhibitor, partial curve] |
| CCCCn1c2c(c(=O)n(C)c1=O)C(CC(=O)OCC(=O)Nc1cccc(C(F)(F)F)c1)C(=O)N2 (configuration not stated) | inconclusive: 12.6 µM [inhibitor, partial curve] |
| Cc1ccc(C)c(NC(=O)CN2C(=O)c3cccnc3Oc3ccc(C)cc32)c1 | inactive |
| Cc1cccc(-c2nc(CSCC(=O)NCCc3ccc(Cl)cc3)c(C)o2)c1 | inconclusive: 15.8 µM [inhibitor, partial curve, poor fit] |
| CC1CCCN(C(=O)C2CCN(CC3CC=CCC3)CC2)C1 (configuration not stated) | inactive |
| COc1ccccc1OCCCOc1c(Cl)cc(C)cc1Cl | inconclusive: 20 µM [inhibitor, partial curve] |
| Cc1ccc(Nc2nc(CSc3nnc(-c4ccc(F)cc4)n3C)cs2)cc1 | inconclusive: 3.55 µM [inhibitor, partial curve] |
| O=S(=O)(CCSc1ccccn1)c1nc2ccccc2s1 | inconclusive: 10 µM [inhibitor, partial curve] |
| COc1cc(NC(=O)c2nc3ccccc3nc2N2CCCCC2)cc(OC)c1OC | inconclusive: 28.2 µM [inhibitor, partial curve] |
| COc1cc(/C=C/c2nc(C#N)c(NCCc3ccccc3)o2)cc(OC)c1OC | inconclusive: 7.94 µM [inhibitor, full curve] |
| O=C(/C=C/c1ccco1)N(Cc1ccc(Cl)cc1)C1CCS(=O)(=O)C1 (configuration not stated) | inconclusive: 17.8 µM [inhibitor, partial curve] |
| CC(C)(C)C1CCc2c(sc3nnn(CCOc4ccccc4)c(=O)c23)C1 (configuration not stated) | inconclusive: 28.2 µM [inhibitor, single point] |

| SMILES | Potency |
| --- | --- |
| Cc1ccc(C(C)C)c(OCc2ccc(C(=O)N/N=C/c3ccc(C(=O)O)cc3)cc2)c1 | inactive |
| O=C(O)c1cccc(NC(=S)N/N=C/c2ccccn2)c1 | inconclusive: 2.51 µM [inhibitor, partial curve] |
| CCCCCCCCCCCCCCCC(=O)NCC(=O)O | inactive |
| CC(C)(C)C(=O)/C=c1\[nH]c(=O)/c(=C\c2ccc(F)cc2)s1 | inconclusive: 31.6 µM [inhibitor, partial curve] |
| COc1ccc(-c2cc(C(C)=O)c(C)n2CCC(=O)Nc2ccc(C(F)(F)F)cc2)cc1 | inactive |
| Cc1ccccc1OCC1Cc2c(nc(N)c(C#N)c2N)O1 (configuration not stated) | inconclusive: 15.8 µM [inhibitor, partial curve] |
| COc1ccc(-c2ccc(=O)n(Cc3cccc([N+](=O)[O-])c3)n2)cc1 | inconclusive: 31.6 µM [inhibitor, partial curve] |
| O/N=C/c1cc(Cl)ccc1OCc1ccccc1Cl | inconclusive: 31.6 µM [inhibitor, partial curve] |
| C=CC1=C2C=C(C3CC3)N(CCCCO)C=C2C(=O)C(C)(OC(=O)c2ccco2)C1=O (configuration not stated) | inconclusive: 3.55 µM [inhibitor, single point] |
| COC(=O)CNC(=O)COC(=O)c1cc(Cl)cc(Cl)c1N | inconclusive: 31.6 µM [inhibitor, single point] |
| COc1ccc2nc(NC(=O)CSC3=NCCS3)sc2c1 | inconclusive: 10 µM [inhibitor, partial curve] |
| CCOC(=O)c1c(NC(=S)NCC2CCCO2)sc(C)c1C (configuration not stated) | inactive |
| CCN(CC)c1ccc(NC(=O)c2ccco2)cc1 | inconclusive: 39.8 µM [inhibitor, single point] |
| O=C(N/N=C/c1c(-c2ccccc2)[nH]c2ccccc12)c1cccnc1 | inconclusive: 17.8 µM [inhibitor, single point] |
| O=C(c1ccco1)N1c2ccccc2Sc2ccccc21 | inactive |
| S=C(Nc1ccc(Cl)cc1)Nc1cccc2cnccc12 | active: 25.1 µM |
| O=C(N/N=C/c1ccco1)c1cc(C2CC2)[nH]n1 | inconclusive: 39.8 µM [inhibitor, single point] |
| O=Cc1[nH]c2ccccc2c1N(C(=O)CCl)c1ccccc1 | active: 31.6 µM |
| CCN1CCC(=NNC(=O)c2ccc(C)c([N+](=O)[O-])c2)CC1 | inconclusive: 22.4 µM [inhibitor, partial curve] |
| O=C1c2ccccc2C(=O)N1CC#CCN1CCN(C2CCCCC2)CC1 | inactive |
| CC(O)CNc1cc(N)c([N+](=O)[O-])cc1[N+](=O)[O-] (configuration not stated) | inconclusive: 35.5 µM [inhibitor, single point] |
| O=C(Nc1ccc(Cn2cccn2)cc1)c1ccc(COc2ccc(Br)cc2)cc1 | inactive |
| Cc1ccc(NC(=O)Nc2cccs2)c(Cl)c1 | inconclusive: 28.2 µM [inhibitor, single point] |
| O=C(c1ccccc1)c1ccc2nc(N3CCN(C(=O)c4ccco4)CC3)c3nncn3c2c1 | inconclusive: 20 µM [inhibitor, partial curve] |
